Experimental data as given in PubChem BioAssay AID2147 (National Center for Advancing Translational Sciences (NCATS), 2009).
Out of some 230,000 compounds screened, about 3,600 (1.6%) were called active. The shares of active, inactive and inconclusive entries below differ from those in the screen. The call rests on the fitted dose curve; in most records, active means well fitted inhibition curve with a large enough effect (not every such curve was filed as active); inconclusive means small, poorly fitted or top-dose-only effect, or another doubt; inactive means no such curve, though single readings can be large or run the other way. Potencies of inconclusive entries are doubtful fits and often do not repeat.

The compounds below were run against Lysine-specific demethylase 4E (Homo sapiens) (UniProt B2RXH2) (assay: qHTS Assay for Inhibitors of Human Jumonji Domain Containing 2E (JMJD2E)). Settings: JMJD2E catalytic domain, FDH-coupled NADH fluorescence (FDH is formaldehyde dehydrogenase); series mostly up to 57.1 µM.
Further: nearly all actives have a fitted effect of over 50% in size.
Potency means the concentration at half of the fitted maximal effect; tags describe the fitted curve by direction and shape.

Chain of UniProt B2RXH2 (B2RXH2 whole entry, looked up, the tested form may be a part): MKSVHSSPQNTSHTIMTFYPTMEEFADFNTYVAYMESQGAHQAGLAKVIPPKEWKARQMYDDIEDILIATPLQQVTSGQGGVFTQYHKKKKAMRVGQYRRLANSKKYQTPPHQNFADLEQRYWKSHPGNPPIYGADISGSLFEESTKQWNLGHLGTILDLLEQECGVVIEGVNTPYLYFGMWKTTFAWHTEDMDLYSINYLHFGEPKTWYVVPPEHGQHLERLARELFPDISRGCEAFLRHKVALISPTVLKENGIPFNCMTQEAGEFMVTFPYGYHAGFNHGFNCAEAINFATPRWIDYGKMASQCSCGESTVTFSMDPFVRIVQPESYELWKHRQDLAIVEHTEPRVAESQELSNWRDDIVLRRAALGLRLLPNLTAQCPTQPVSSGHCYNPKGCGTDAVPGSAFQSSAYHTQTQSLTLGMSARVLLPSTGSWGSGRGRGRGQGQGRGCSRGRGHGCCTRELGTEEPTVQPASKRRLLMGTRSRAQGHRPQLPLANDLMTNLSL

| SMILES | Potency |
| --- | --- |
| CCOc1ccc(N/C(C)=C/C(=O)c2ccc3c(c2)OCCO3)cc1 | inconclusive: 39.8 µM [inhibitor, single point] |
| O=C(OCC(F)(F)C(F)F)c1ccccc1C(=O)Oc1ccc(F)cc1F | inconclusive: 39.8 µM [inhibitor, single point] |
| O=C(CSc1nc2ncc(Cl)cc2[nH]1)NCCc1ccc(F)cc1 | inconclusive: 20 µM [inhibitor, single point] |
| Cc1ccc(-c2cc(C(=O)N/N=C/c3c(C)nn(C)c3C)c3ccccc3n2)cc1C | inconclusive: 35.5 µM [inhibitor, single point] |
| COC(=O)C1=C(C)NC(=O)NC1c1cccc(OC)c1OCc1ccccc1 (stereo not drawn) | inactive |
| COCC1C2CC[C@H]3C(OCc4ccc(OC)cc4)OC[C@]4(C)[C@H]3C2=C(CN4C(=O)OC(C)(C)C)[C@H](C)C1COC (stereo partly drawn) | inactive |
| CCOC(=O)c1ccc(S(=O)(=O)NNC(=O)COc2cccc(C)c2)cc1 | inactive |
| COc1cc(/C=C(/C(=O)c2cccs2)c2nc3ccccc3[nH]2)ccc1O | inconclusive: 35.5 µM [inhibitor, single point] |
| CCn1c(=O)cc(SCC(=O)NCC2CCCO2)c2ccccc21 (stereo not drawn) | inconclusive: 39.8 µM [inhibitor, single point] |
| COC(=O)Cn1c(=NC(=O)c2nc3ccccc3s2)sc2cc(S(C)(=O)=O)ccc21 | inconclusive: 6.31 µM [inhibitor, single point] |
| Nc1n[nH]c2c1C1(CCCC1)Cc1ccccc1-2 | inconclusive: 20 µM [inhibitor, partial curve] |
| CC(C)NS(=O)(=O)c1ccc(CCC(=O)Nc2ccc3c(c2)OCCO3)cc1 | inactive |
| Cc1nc2c3ccccc3nc(SCC(=O)c3ccc(Cl)cc3)n2n1 | inactive |
| Cc1ccc2c(c1)c1cccc3c1n2CCN3CCC(N)=O | inconclusive: 22.4 µM [inhibitor, partial curve] |
| CC(=O)C1=C(O)C(=O)N(CCN2CCOCC2)C1c1ccccc1 (stereo not drawn) | inconclusive: 31.6 µM [inhibitor, single point] |
| Cc1ccc(C2CC(c3ccccc3)=NN2c2ccccc2)o1 (stereo not drawn) | inconclusive: 14.1 µM [inhibitor, partial curve] |
| CN1CCC(N(C)CC(=O)Nc2ccccc2N2CCOCC2)CC1 | inconclusive: 28.2 µM [inhibitor, single point] |
| CC(=O)c1ccc(OCC(=O)NC2CCS(=O)(=O)C2)cc1 (stereo not drawn) | inconclusive: 31.6 µM [inhibitor, partial curve] |
| Cc1ccc(SCCC(=O)Nc2ccccc2C(=O)NC(C)C)cc1 | inconclusive: 31.6 µM [inhibitor, single point] |
| CC(NC(=O)c1cccc(S(=O)(=O)N(C)C)c1)c1nc2ccccc2[nH]1 (stereo not drawn) | inconclusive: 1.26 µM [inhibitor, full curve] |
| Cn1c(=O)[nH]c(=O)c2c1nc(Br)n2CCCO | inconclusive: 22.4 µM [inhibitor, partial curve, poor fit] |
| CCN(CC)CCNC(=O)CCn1c(=S)[nH]c2cc3c(cc2c1=O)OCO3 | inactive |
| CC(C)(c1ccccc1)c1ccc(OCC(O)CNC2CCN(Cc3ccccc3)CC2)cc1 (stereo not drawn) | active: 10 µM |
| O=C(Nc1cccc(-c2nc3cc(Cl)ccc3o2)c1)C1CCCO1 (stereo not drawn) | inconclusive: 28.2 µM [inhibitor, single point] |
| COC(=O)CSc1n[nH]c(=S)s1 | inactive |

| SMILES | Potency |
| --- | --- |
| Cc1ccc(OCc2nc3c4c(ncn3n2)-c2ccccc2CC42CCCC2)cc1 | inconclusive: 10 µM [inhibitor, partial curve] |
| Nc1cnn(Cc2ccc(F)cc2)c1 | inactive |
| Cc1nc(NC2CCCCC2)c2nc(-c3ccccc3)n(CCN3CCCC3)c2n1 | inconclusive: 31.6 µM [inhibitor, partial curve] |
| COCCn1c(=NC(=O)c2cc(Cl)sc2Cl)sc2cc(S(N)(=O)=O)ccc21 | inconclusive: 35.5 µM [inhibitor, single point] |
| O=C(C1CCCO1)N1CCN(c2c3c(nc4cc(-c5ccc(F)cc5)nn24)CCC3)CC1 (stereo not drawn) | inactive |
| Cc1ccc2sc(NNC(=O)c3cc(-c4cccs4)nc4ccccc34)nc2c1C | inconclusive: 28.2 µM [inhibitor, partial curve] |
| O=C(NCc1ccco1)C1CCN(C(=O)c2cc3sccc3n2Cc2ccc(Cl)cc2)CC1 | inactive |
| Cc1ccccc1NC(=O)CSc1nnnn1C | inactive |
| Cc1ccc(N=Nc2c(=O)[nH]n3c(=O)cc(C)[nH]c23)cc1 | inactive |
| COc1cnc(SCc2c(Cl)cccc2Cl)nc1Cl | inactive |
| CSCc1nc2scc(-c3ccccc3)c2c(=O)[nH]1 | inconclusive: 39.8 µM [inhibitor, single point] |
| N#Cc1ccccc1S(=O)(=O)N1CCN(CC(O)c2ccccc2)CC1 (stereo not drawn) | inconclusive: 28.2 µM [inhibitor, single point] |
| c1ccc(-n2cc(CNCCc3cscn3)c(-c3ccc4c(c3)OCO4)n2)cc1 | inconclusive: 31.6 µM [inhibitor, partial curve] |
| CN(c1ccc(C(=O)Nc2ccc(Cl)cn2)cc1)S(=O)(=O)c1ccccc1 | inconclusive: 25.1 µM [inhibitor, partial curve, poor fit] |
| O=C(N/N=C/c1cc(Br)c(Br)o1)c1ccc2c(c1)OCCO2 | inconclusive: 39.8 µM [inhibitor, single point] |
| NNC(=O)c1ccc(OCC2CC(c3ccc(Cl)cc3)=NO2)cc1 (stereo not drawn) | inactive |
| Cc1cc(OCC(=O)NC(C)C)cc(C)c1Cl | inactive |
| COc1ccc2c3c1OC1C[C@@H](O)C=C[C@@]31CCN(C)C2 (stereo partly drawn) | inactive |
| CCc1c(C)sc(NC(=O)c2ccc(Br)o2)c1C(=O)OC | inconclusive: 3.16 µM [inhibitor, partial curve] |
| CC(C)C[C@@H](CC(=O)N[C@@H](CCC(=O)O)CC(=O)O)NC(=O)[C@@H]1CNCC[C@H]1NC(=O)C[C@@H](NC(=O)C[C@H](Cc1c[nH]c2ccccc12)NC(=O)[C@@H]1CNCC[C@H]1N)C(C)C | inactive |
| CCCNC(=O)c1ccc(N(Cc2ccccc2)S(C)(=O)=O)cc1 | inactive |
| COc1ccc(N2C(=O)C(Cl)=C(Nc3ccccc3O)C2=O)cc1 | inactive |
| O=C(NCc1ccc(N2CCCC2=O)cc1)c1ccc(F)cc1 | inactive |
| CCCCn1c(/N=C/c2ccc(N(C)C)cc2)nc2ccccc21 | inactive |
| N#CC(C#N)=C1C(=O)N(CCN2CCCCC2)c2ccccc21 | inactive |

| SMILES | Potency |
| --- | --- |
| Cc1ccc(Cl)cc1NC(=O)c1cc2ccccc2cc1O | active: 22.4 µM |
| COc1cc(NC(=O)C2=C(N3CCOCC3)/C(=C\c3ccc(N(C)C)cc3)CCC2)cc(OC)c1OC | inconclusive: 39.8 µM [inhibitor, single point] |
| Cc1cc(C)n(-c2ncc3c(n2)N(C)CCOC3=O)n1 | inconclusive: 31.6 µM [inhibitor, single point] |
| Nc1c2c(nc3ccc(Br)cc13)N(Cc1ccccc1)CC2 | inconclusive: 35.5 µM [inhibitor, single point] |
| Cc1cc(NC(=O)COC(=O)COc2cccc3c2OC(C)(C)C3)no1 | inactive |
| COc1ccc(/C=N/n2c(=O)[nH]c3c([nH]c4ccc(C)cc43)c2=O)cc1CN1CCOCC1 | inconclusive: 31.6 µM [inhibitor, partial curve] |
| O=C(Nc1nnc(-c2ccc(Cl)cc2)o1)c1cccc(N2C(=O)CCC2=O)c1 | inconclusive: 39.8 µM [inhibitor, single point] |
| O=C1c2cccc3cccc(c23)C(=O)N1CC1CCN(CC(O)COCc2ccc3c(c2)OCO3)CC1 (stereo not drawn) | inconclusive: 31.6 µM [inhibitor, partial curve] |
| CCN(CC)P(=O)(Nc1ccccc1Br)c1ccc(N(C)C)cc1NC(=O)c1ccco1 (stereo not drawn) | inconclusive: 11.2 µM [inhibitor, partial curve] |
| COc1cc(C2NC(C(=O)O)Cc3c2[nH]c2ccccc32)cc(OC)c1OC (stereo not drawn) | inconclusive: 35.5 µM [inhibitor, single point] |
| CCN(CC)C(=N)N1c2ccccc2CCC1C (stereo not drawn) | inactive |
| Cc1cc(C(=O)Nc2sc3c(c2C#N)CCC(C)C3)cs1 (stereo not drawn) | inconclusive: 11.2 µM [inhibitor, partial curve] |
| CCOc1c(Cl)cc(CNc2ccc(N3CCCC3)cc2)cc1OC | active: 8.91 µM |
| CC(=O)N(/C=C1\SC(=S)N(c2ccccc2)C1=O)c1ccccc1 | inactive |
| CCCC(C(=O)NC1CCCC1)N(CC1CCCO1)C(=O)c1snc(C(N)=O)c1N (stereo not drawn) | inconclusive: 28.2 µM [inhibitor, partial curve] |
| Cn1c(=O)[nH]c(=O)c2c1nc(NC1CCCCC1)n2CCO | inconclusive: 39.8 µM [inhibitor, single point] |
| COc1cc(-c2nc(S(=O)(=O)c3ccc(C)cc3)c(N3CCOCC3)o2)cc(OC)c1OC | inactive |
| COc1ccc(S(=O)(=O)N2CCCCCC2)cc1 | inactive |
| Nc1ccccc1-c1nc2ccccc2s1 | inconclusive: 28.2 µM [inhibitor, partial curve] |
| COc1ccc(CNC(=O)CCCOc2cc(=O)n(C)c3ccccc23)cc1 | inactive |
| O=C(NCc1ccccn1)c1n[nH]c2ccccc12 | inconclusive: 25.1 µM [inhibitor, single point] |
| CC1=CC2=NC(=O)/C(=C\c3cc(C)n(-c4ccc(F)cc4)c3C)C(=N)N2O1 | inconclusive: 35.5 µM [inhibitor, single point] |
| CN(CC(=O)Nc1ccc(C#N)cc1)Cc1ccc(Cl)cc1 | inactive |
